Reference: the supplement of paper PMC4967469
By IC50 is meant the dose at which the fit gives 50% viability; a limit (>, <) means that the fit lies beyond the doses tested. AUC is the area under the same curve over the 256-fold range up to the top dose, as a fraction; values near 1 show little effect. Where the top dose is marked as inferred, it was derived from the fitted curves, not read from the paper.

Compound: CCn1cc(-c2ccnc3[nH]c(-c4cccc(CN(C)C)c4)cc23)c(-c2ccc(NC(=O)N(C)C)cc2)n1 [GSK1070916]
Test: Viability of human cancer cell lines after 72 h of drug (GDSC screen)
Conditions: top dose inferred
Experimental: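 Human cancer cell lines in 384-well plates, medium with 10% serum, drug for 72 h over a 256-fold dose range (nine 2-fold or five 4-fold steps up to the top dose). Adherent lines were fixed and stained with the nucleic acid dye Syto60, suspension lines read with resazurin; signal relative to control wells, capped at 0 and 100%. One two-parameter sigmoid per drug and line, fitted in a mixed model over all curves with the slope shared within a line.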

In order of rising AUC:
1. CCRF-CEM (lymphoblastic leukaemia, suspension, top dose 2.56 µM)  0.064
2. CESS (acute myeloid leukaemia, suspension, top dose 2.56 µM)  0.178
3. CHP-134 (neuroblastoma, suspension, top dose 2.56 µM)  0.272
4. COR-L321 (lung, suspension, top dose 2.56 µM)  0.437
5. Ca-Ski (cervix, adherent, top dose 2.56 µM)  0.485
6. CMK (acute myeloid leukaemia, suspension, top dose 2.56 µM)  0.656
7. CTV-1 (acute myeloid leukaemia, suspension, top dose 2.56 µM)  0.782
8. CAL-27 (head and neck, adherent, top dose 2.56 µM)  0.812
9. CPC-N (small cell lung carcinoma, suspension, top dose 2.56 µM)  0.816
10. COLO-668 (small cell lung carcinoma, adherent, top dose 2.56 µM)  0.84
11. CAL-12T (non-small cell lung carcinoma, adherent, top dose 2.56 µM)  0.849
12. COR-L303 (small cell lung carcinoma, suspension, top dose 2.56 µM)  0.851
13. COR-L279 (small cell lung carcinoma, suspension, top dose 2.56 µM)  0.855
14. CHP-212 (neuroblastoma, adherent, top dose 2.56 µM)  0.876
15. COLO-800 (melanoma, adherent, top dose 2.56 µM)  0.878
16. COLO-684 (endometrium, suspension, top dose 2.56 µM)  0.879
17. COR-L23 (large cell lung carcinoma, adherent, top dose 2.56 µM)  0.882
18. CW-2 (large intestine, adherent, top dose 2.56 µM)  0.883
19. CS1 (bone, adherent, top dose 2.56 µM)  0.888
20. CAL-85-1 (breast, adherent, top dose 2.56 µM)  0.893
21. COLO-679 (melanoma, adherent, top dose 2.56 µM)  0.894
22. COR-L105 (lung adenocarcinoma, adherent, top dose 2.56 µM)  0.896
23. CAL-120 (breast, adherent, top dose 2.56 µM)  0.901
24. CAKI-1 (kidney, adherent, top dose 2.56 µM)  0.911
25. COLO-824 (breast, adherent, top dose 2.56 µM)  0.913
26. COLO-320-HSR (large intestine, suspension, top dose 2.56 µM)  0.928
27. COR-L88 (small cell lung carcinoma, adherent, top dose 2.56 µM)  0.932
28. CHSA8926 (chondrosarcoma, adherent, top dose 2.56 µM)  0.933
29. CAMA-1 (breast, adherent, top dose 2.56 µM)  0.936
30. CaR-1 (large intestine, adherent, top dose 2.56 µM)  0.939
31. CAS-1 (glioma, adherent, top dose 2.56 µM)  0.943
32. CHSA0011 (chondrosarcoma, adherent, top dose 2.56 µM)  0.946
33. COR-L95 (small cell lung carcinoma, adherent, top dose 2.56 µM)  0.946
34. CCK-81 (large intestine, adherent, top dose 2.56 µM)  0.947
35. CFPAC-1 (pancreas, adherent, top dose 2.56 µM)  0.956
36. COLO-792 (melanoma, adherent, top dose 2.56 µM)  0.958
37. COLO-829 (melanoma, adherent, top dose 2.56 µM)  0.959
38. CTB-1 (B-cell lymphoma, suspension, top dose 2.56 µM)  0.959
39. CAL-54 (kidney, adherent, top dose 2.56 µM)  0.961
40. CCF-STTG1 (glioma, adherent, top dose 2.56 µM)  0.963
41. CHSA0108 (chondrosarcoma, adherent, top dose 2.56 µM)  0.965
42. CL-11 (large intestine, adherent, top dose 2.56 µM)  0.97
43. CAPAN-1 (pancreas, adherent, top dose 2.56 µM)  0.971
44. CGTH-W-1 (thyroid, adherent, top dose 2.56 µM)  0.971
45. CHL-1 (melanoma, adherent, top dose 2.56 µM)  0.971
46. CAL-39 (cervix, adherent, top dose 2.56 µM)  0.973
47. COLO-678 (large intestine, semi-adherent, top dose 2.56 µM)  0.974
48. COLO-680N (oesophagus, adherent, top dose 2.56 µM)  0.974
49. CAL-51 (breast, adherent, top dose 2.56 µM)  0.981
50. CAL-29 (bladder, adherent, top dose 2.56 µM)  0.982
51. CAL-62 (thyroid, adherent, top dose 2.56 µM)  0.983
52. CAL-72 (osteosarcoma, adherent, top dose 2.56 µM)  0.984
53. CAL-148 (breast, suspension, top dose 2.56 µM)  0.984
54. CP66-MEL (melanoma, adherent, top dose 2.56 µM)  0.984
55. CAL-78 (chondrosarcoma, adherent, top dose 2.56 µM)  0.986
56. Ca9-22 (head and neck, adherent, top dose 2.56 µM)  0.986
57. CP50-MEL-B (melanoma, adherent, top dose 2.56 µM)  0.987
58. COLO-783 (melanoma, adherent, top dose 2.56 µM)  0.988

Going from “CAKI-1 (kidney, adherent, top dose 2.56 µM)” to “CAL-12T (non-small cell lung carcinoma, adherent, top dose 2.56 µM)”, the IC50 falls from > 2560 nM to 2270 nM.

First: CAL-27 (head and neck, adherent, top dose 2.56 µM)
Second: CAL-29 (bladder, adherent, top dose 2.56 µM)
The IC50 of the first is lower: 1400 nM for the first, > 2560 nM for the second.

“CAL-39 (cervix, adherent, top dose 2.56 µM)” and “CAL-51 (breast, adherent, top dose 2.56 µM)” cannot be ordered by IC50: > 2560 nM for the first, > 2560 nM for the second.

“CAL-54 (kidney, adherent, top dose 2.56 µM)” and “CAL-62 (thyroid, adherent, top dose 2.56 µM)” cannot be ordered by IC50: > 2560 nM for the first, > 2560 nM for the second.

“CAL-72 (osteosarcoma, adherent, top dose 2.56 µM)” and “CAL-78 (chondrosarcoma, adherent, top dose 2.56 µM)” cannot be ordered by IC50: > 2560 nM for the first, > 2560 nM for the second.

“CAL-85-1 (breast, adherent, top dose 2.56 µM)” and “CAL-120 (breast, adherent, top dose 2.56 µM)” cannot be ordered by IC50: > 2560 nM for the first, > 2560 nM for the second.

“CAL-148 (breast, suspension, top dose 2.56 µM)” and “CAMA-1 (breast, adherent, top dose 2.56 µM)” cannot be ordered by IC50: > 2560 nM for the first, > 2560 nM for the second.

“CAPAN-1 (pancreas, adherent, top dose 2.56 µM)” and “CAS-1 (glioma, adherent, top dose 2.56 µM)” cannot be ordered by IC50: > 2560 nM for the first, > 2560 nM for the second.

“CCF-STTG1 (glioma, adherent, top dose 2.56 µM)” and “CCK-81 (large intestine, adherent, top dose 2.56 µM)” cannot be ordered by IC50: > 2560 nM for the first, > 2560 nM for the second.

Compared with “CCRF-CEM (lymphoblastic leukaemia, suspension, top dose 2.56 µM)”, “CESS (acute myeloid leukaemia, suspension, top dose 2.56 µM)” is higher in IC50: < 10 nM for the first, 21 nM for the second.

“CFPAC-1 (pancreas, adherent, top dose 2.56 µM)” and “CGTH-W-1 (thyroid, adherent, top dose 2.56 µM)” cannot be ordered by IC50: > 2560 nM for the first, > 2560 nM for the second.

First: CHL-1 (melanoma, adherent, top dose 2.56 µM)
Second: CHP-134 (neuroblastoma, suspension, top dose 2.56 µM)
The IC50 of the first is higher: > 2560 nM for the first, 29.7 nM for the second.

Compared with “CHP-212 (neuroblastoma, adherent, top dose 2.56 µM)”, “CHSA0011 (chondrosarcoma, adherent, top dose 2.56 µM)” is higher in IC50: 2200 nM for the first, > 2560 nM for the second.

“CHSA0108 (chondrosarcoma, adherent, top dose 2.56 µM)” and “CHSA8926 (chondrosarcoma, adherent, top dose 2.56 µM)” cannot be ordered by IC50: > 2560 nM for the first, > 2560 nM for the second.

First: CL-11 (large intestine, adherent, top dose 2.56 µM)
Second: CMK (acute myeloid leukaemia, suspension, top dose 2.56 µM)
The IC50 of the first is higher: > 2560 nM for the first, 402 nM for the second.

Going from “COLO-320-HSR (large intestine, suspension, top dose 2.56 µM)” to “COLO-668 (small cell lung carcinoma, adherent, top dose 2.56 µM)”, the IC50 falls from > 2560 nM to 1760 nM.

“COLO-678 (large intestine, semi-adherent, top dose 2.56 µM)” and “COLO-679 (melanoma, adherent, top dose 2.56 µM)” cannot be ordered by IC50: > 2560 nM for the first, > 2560 nM for the second.

“COLO-680N (oesophagus, adherent, top dose 2.56 µM)” and “COLO-684 (endometrium, suspension, top dose 2.56 µM)” cannot be ordered by IC50: > 2560 nM for the first, > 2560 nM for the second.

“COLO-783 (melanoma, adherent, top dose 2.56 µM)” and “COLO-792 (melanoma, adherent, top dose 2.56 µM)” cannot be ordered by IC50: > 2560 nM for the first, > 2560 nM for the second.

First: COLO-800 (melanoma, adherent, top dose 2.56 µM)
Second: COLO-824 (breast, adherent, top dose 2.56 µM)
The IC50 of the first is lower: 2460 nM for the first, > 2560 nM for the second.

“COLO-829 (melanoma, adherent, top dose 2.56 µM)” and “COR-L23 (large cell lung carcinoma, adherent, top dose 2.56 µM)” cannot be ordered by IC50: > 2560 nM for the first, > 2560 nM for the second.

“COR-L88 (small cell lung carcinoma, adherent, top dose 2.56 µM)” and “COR-L95 (small cell lung carcinoma, adherent, top dose 2.56 µM)” cannot be ordered by IC50: > 2560 nM for the first, > 2560 nM for the second.

Compared with “COR-L105 (lung adenocarcinoma, adherent, top dose 2.56 µM)”, “COR-L279 (small cell lung carcinoma, suspension, top dose 2.56 µM)” is lower in IC50: > 2560 nM for the first, 1710 nM for the second.

First: COR-L303 (small cell lung carcinoma, suspension, top dose 2.56 µM)
Second: COR-L321 (lung, suspension, top dose 2.56 µM)
The IC50 of the first is 17-fold higher: 1860 nM for the first, 108 nM for the second.

“CP50-MEL-B (melanoma, adherent, top dose 2.56 µM)” and “CP66-MEL (melanoma, adherent, top dose 2.56 µM)” cannot be ordered by IC50: > 2560 nM for the first, > 2560 nM for the second.

First: CPC-N (small cell lung carcinoma, suspension, top dose 2.56 µM)
Second: CS1 (bone, adherent, top dose 2.56 µM)
The IC50 of the first is lower: 1590 nM for the first, > 2560 nM for the second.

Going from “CTB-1 (B-cell lymphoma, suspension, top dose 2.56 µM)” to “CTV-1 (acute myeloid leukaemia, suspension, top dose 2.56 µM)”, the IC50 falls from > 2560 nM to 854 nM.

“CW-2 (large intestine, adherent, top dose 2.56 µM)” and “Ca9-22 (head and neck, adherent, top dose 2.56 µM)” cannot be ordered by IC50: > 2560 nM for the first, > 2560 nM for the second.

Compared with “Ca-Ski (cervix, adherent, top dose 2.56 µM)”, “CaR-1 (large intestine, adherent, top dose 2.56 µM)” is higher in IC50: 145 nM for the first, > 2560 nM for the second.
